# The other results are listed elsewhere or left out. Repeats are few or missing, and single values can be far off.
# System: SkMel2
# Assay: cell count relative to DMSO control; melanoma cells; higher = more viable cells
# Conditions: library dose: standard library concentration; 72 h
# 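Further: cells treated in 1,536-well plates, then fixed and DAPI-stained, with nuclei counted from automated high-throughput microscope images.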
row,SMILES,cell count
1,"CS(=O)(=O)CCNCc1ccc(-c2ccc3ncnc(Nc4ccc(OCc5cccc(F)c5)c(Cl)c4)c3c2)o1 [lapatinib] + Oc1nc(-c2ccc(C(F)(F)F)cc2)nc2c1CSCC2 [XAV939] (first compound 4 µM, partner dose 10 µM)",98.1%
2,"C=CCNC1=C2C[C@@H](C)C[C@H](OC)[C@H](O)[C@@H](C)/C=C(\C)[C@H](OC(N)=O)[C@@H](OC)/C=C\C=C(/C)C(=O)NC(=CC1=O)C2=O [Tanespimycin] + O=C(O)C(=O)Nc1sc2c(c1C(=O)O)CCNC2 [TCS401] (first compound 0.01 µM, partner dose 8.33333 µM)",106%
3,"C=CCNC1=C2C[C@@H](C)C[C@H](OC)[C@H](O)[C@@H](C)/C=C(\C)[C@H](OC(N)=O)[C@@H](OC)/C=C\C=C(/C)C(=O)NC(=CC1=O)C2=O [Tanespimycin] + Oc1nc(-c2ccc(C(F)(F)F)cc2)nc2c1CSCC2 [XAV939] (first compound 0.01 µM, partner dose 10 µM)",91.6%
4,"CNC(=O)c1cc(Oc2ccc(NC(=O)Nc3ccc(Cl)c(C(F)(F)F)c3)cc2)ccn1 [sorafenib] + CCc1ccc(CCOc2ccc(CC3SC(=O)NC3=O)cc2)nc1 [pioglitazone] (first compound 2 µM, partner dose 10 µM)",82.5%
5,"C[C@@H](Oc1cc(-c2cnn(C3CCNCC3)c2)cnc1N)c1c(Cl)ccc(F)c1Cl [Crizotinib] + O=S(=O)(c1ccccc1)N(CC(F)(F)F)c1ccc(C(O)(C(F)(F)F)C(F)(F)F)cc1 [T0901317] (first compound 1 µM, partner dose 7 µM)",80.3%
6,"CN1CCN(c2ccc3nc(-c4c(N)c5c(F)cccc5[nH]c4=O)[nH]c3c2)CC1 [Dovitinib] + O=C(O)C(=O)Nc1sc2c(c1C(=O)O)CCNC2 [TCS401] (first compound 0.5 µM, partner dose 8.33333 µM)",81.8%
7,"CS(=O)(=O)CCNCc1ccc(-c2ccc3ncnc(Nc4ccc(OCc5cccc(F)c5)c(Cl)c4)c3c2)o1 [lapatinib] + N#Cc1c(O)c2c(-c3ccc(-c4ccccc4O)cc3)csc2[nH]c1=O [A769662] (first compound 4 µM, partner dose 10 µM)",85.7%
8,"CS(=O)(=O)CCNCc1ccc(-c2ccc3ncnc(Nc4ccc(OCc5cccc(F)c5)c(Cl)c4)c3c2)o1 [lapatinib] + O=C(O)C(=O)Nc1sc2c(c1C(=O)O)CCNC2 [TCS401] (first compound 4 µM, partner dose 8.33333 µM)",91.5%
9,"CN1CCN(c2ccc3nc(-c4c(N)c5c(F)cccc5[nH]c4=O)[nH]c3c2)CC1 [Dovitinib] + N#Cc1c(O)c2c(-c3ccc(-c4ccccc4O)cc3)csc2[nH]c1=O [A769662] (first compound 0.5 µM, partner dose 10 µM)",80.9%
10,"C[C@@H](Oc1cc(-c2cnn(C3CCNCC3)c2)cnc1N)c1c(Cl)ccc(F)c1Cl [Crizotinib] + O=C(Nc1ccccc1)c1cc([N+](=O)[O-])ccc1Cl [GW9662] (first compound 1 µM, partner dose 10 µM)",90.3%

# System: SkMel30
# Assay: as above
# Conditions: library dose: standard library concentration; 72 h
row,SMILES,cell count
1,"CS(=O)(=O)CCNCc1ccc(-c2ccc3ncnc(Nc4ccc(OCc5cccc(F)c5)c(Cl)c4)c3c2)o1 [lapatinib] + COc1cc2ncnc(Nc3ccc(Oc4ccccc4)cc3)c2cc1OC [SrcI1] (first compound 4 µM, partner dose 10 µM)",82.9%
2,"CNC(=O)c1cc(Oc2ccc(NC(=O)Nc3ccc(Cl)c(C(F)(F)F)c3)cc2)ccn1 [sorafenib] + COc1ccc2c(c1)CCC1C2CCC2(C)C(NCCCCCCN3C(=O)C=CC3=O)CCC12 [U73122] (first compound 2 µM, partner dose 2 µM)",65.8%
3,"CNC(=O)c1cc(Oc2ccc(NC(=O)Nc3ccc(Cl)c(C(F)(F)F)c3)cc2)ccn1 [sorafenib] + Cc1cc([N+](=O)[O-])ccc1NS(=O)(=O)c1cc(Cl)ccc1Cl [FH535] (first compound 2 µM, partner dose 5 µM)",53.7%
4,"CN1CCN(c2ccc3nc(-c4c(N)c5c(F)cccc5[nH]c4=O)[nH]c3c2)CC1 [Dovitinib] + CCc1ccc(CCOc2ccc(CC3SC(=O)NC3=O)cc2)nc1 [pioglitazone] (first compound 0.5 µM, partner dose 10 µM)",85.4%
5,"C=CCNC1=C2C[C@@H](C)C[C@H](OC)[C@H](O)[C@@H](C)/C=C(\C)[C@H](OC(N)=O)[C@@H](OC)/C=C\C=C(/C)C(=O)NC(=CC1=O)C2=O [Tanespimycin] + N#Cc1c(O)c2c(-c3ccc(-c4ccccc4O)cc3)csc2[nH]c1=O [A769662] (first compound 0.01 µM, partner dose 10 µM)",82.7%
6,"C[C@@H](Oc1cc(-c2cnn(C3CCNCC3)c2)cnc1N)c1c(Cl)ccc(F)c1Cl [Crizotinib] + Oc1nc(-c2ccc(C(F)(F)F)cc2)nc2c1CSCC2 [XAV939] (first compound 1 µM, partner dose 10 µM)",94.9%
7,"CS(=O)(=O)CCNCc1ccc(-c2ccc3ncnc(Nc4ccc(OCc5cccc(F)c5)c(Cl)c4)c3c2)o1 [lapatinib] + O=c1cc(-c2cccc3c2Sc2ccccc2S3)oc(N2CCOCC2)c1 [KU55933] (first compound 4 µM, partner dose 5 µM)",93.2%
8,"C=CCNC1=C2C[C@@H](C)C[C@H](OC)[C@H](O)[C@@H](C)/C=C(\C)[C@H](OC(N)=O)[C@@H](OC)/C=C\C=C(/C)C(=O)NC(=CC1=O)C2=O [Tanespimycin] + CCN(CC)CCCCNc1ncc2cc(-c3cc(OC)cc(OC)c3)c(NC(=O)NC(C)(C)C)nc2n1 [PD173074] (first compound 0.01 µM, partner dose 0.5 µM)",115%
9,"CS(=O)(=O)CCNCc1ccc(-c2ccc3ncnc(Nc4ccc(OCc5cccc(F)c5)c(Cl)c4)c3c2)o1 [lapatinib] + CCc1ccc(CCOc2ccc(CC3SC(=O)NC3=O)cc2)nc1 [pioglitazone] (first compound 4 µM, partner dose 10 µM)",80.9%
10,"CN1CCN(c2ccc3nc(-c4c(N)c5c(F)cccc5[nH]c4=O)[nH]c3c2)CC1 [Dovitinib] + COc1cc(N2CCC(N3CCN(C)CC3)CC2)ccc1Nc1ncc(Cl)c(Nc2ccccc2S(=O)(=O)C(C)C)n1 [NVP-TAE684] (first compound 0.5 µM, partner dose 0.4 µM)",80.1%
11,"CS(=O)(=O)CCNCc1ccc(-c2ccc3ncnc(Nc4ccc(OCc5cccc(F)c5)c(Cl)c4)c3c2)o1 [lapatinib] + COc1ccc2c(c1)CCC1C2CCC2(C)C(NCCCCCCN3C(=O)C=CC3=O)CCC12 [U73122] (first compound 4 µM, partner dose 2 µM)",80.3%
12,"CNC(=O)c1cc(Oc2ccc(NC(=O)Nc3ccc(Cl)c(C(F)(F)F)c3)cc2)ccn1 [sorafenib] + CCN(CC)CCCCNc1ncc2cc(-c3cc(OC)cc(OC)c3)c(NC(=O)NC(C)(C)C)nc2n1 [PD173074] (first compound 2 µM, partner dose 0.5 µM)",113%
13,"C=CCNC1=C2C[C@@H](C)C[C@H](OC)[C@H](O)[C@@H](C)/C=C(\C)[C@H](OC(N)=O)[C@@H](OC)/C=C\C=C(/C)C(=O)NC(=CC1=O)C2=O [Tanespimycin] + CCCCCCCCCCCC1=C(O)C(=O)C=C(O)C1=O [Embelin] (first compound 0.01 µM, partner dose 6 µM)",86.1%
14,"C=CCNC1=C2C[C@@H](C)C[C@H](OC)[C@H](O)[C@@H](C)/C=C(\C)[C@H](OC(N)=O)[C@@H](OC)/C=C\C=C(/C)C(=O)NC(=CC1=O)C2=O [Tanespimycin] + COc1ccc2c(c1)CCC1C2CCC2(C)C(NCCCCCCN3C(=O)C=CC3=O)CCC12 [U73122] (first compound 0.01 µM, partner dose 2 µM)",111%
15,"CNC(=O)c1cc(Oc2ccc(NC(=O)Nc3ccc(Cl)c(C(F)(F)F)c3)cc2)ccn1 [sorafenib] + O=C1NC(=O)/C(=C/c2ccc(-c3ccc(F)cc3O)o2)S1 [AS252424] (first compound 2 µM, partner dose 5 µM)",114%
16,"CN1CCN(c2ccc3nc(-c4c(N)c5c(F)cccc5[nH]c4=O)[nH]c3c2)CC1 [Dovitinib] + Oc1nc(-c2ccc(C(F)(F)F)cc2)nc2c1CSCC2 [XAV939] (first compound 0.5 µM, partner dose 10 µM)",81.7%
17,"CS(=O)(=O)CCNCc1ccc(-c2ccc3ncnc(Nc4ccc(OCc5cccc(F)c5)c(Cl)c4)c3c2)o1 [lapatinib] + CCCCCCCCCCCC1=C(O)C(=O)C=C(O)C1=O [Embelin] (first compound 4 µM, partner dose 6 µM)",81%
18,"CN1CCN(c2ccc3nc(-c4c(N)c5c(F)cccc5[nH]c4=O)[nH]c3c2)CC1 [Dovitinib] + COc1ccc(-c2ccc3c(N4CCOCC4)nc(N4C[C@@H](C)O[C@@H](C)C4)nc3n2)cc1CO [KU0063794] (first compound 0.5 µM, partner dose 0.1 µM)",85.8%
19,"C=CCNC1=C2C[C@@H](C)C[C@H](OC)[C@H](O)[C@@H](C)/C=C(\C)[C@H](OC(N)=O)[C@@H](OC)/C=C\C=C(/C)C(=O)NC(=CC1=O)C2=O [Tanespimycin] + COc1ccc(-c2ccc3c(N4CCOCC4)nc(N4C[C@@H](C)O[C@@H](C)C4)nc3n2)cc1CO [KU0063794] (first compound 0.01 µM, partner dose 0.1 µM)",93.4%
